In the supplement of paper PMC3334620:
In all, about 33,000 sequences were measured (“E-score (-0.5 to 0.5)”: median about -0.012, highest 2% from about 0.27 on). Some of the results follow.

These sequences were tested against T1, Vhr1 (UniProt P40522) (assay: PBM E-score (8-mer binding enrichment) (E-score (-0.5 to 0.5)); higher = stronger / more preferred TF binding; most listed sequences are background and not binding sites). Conditions: protein concentration: 200 nM; construct: GST-full length.
T1 sequence: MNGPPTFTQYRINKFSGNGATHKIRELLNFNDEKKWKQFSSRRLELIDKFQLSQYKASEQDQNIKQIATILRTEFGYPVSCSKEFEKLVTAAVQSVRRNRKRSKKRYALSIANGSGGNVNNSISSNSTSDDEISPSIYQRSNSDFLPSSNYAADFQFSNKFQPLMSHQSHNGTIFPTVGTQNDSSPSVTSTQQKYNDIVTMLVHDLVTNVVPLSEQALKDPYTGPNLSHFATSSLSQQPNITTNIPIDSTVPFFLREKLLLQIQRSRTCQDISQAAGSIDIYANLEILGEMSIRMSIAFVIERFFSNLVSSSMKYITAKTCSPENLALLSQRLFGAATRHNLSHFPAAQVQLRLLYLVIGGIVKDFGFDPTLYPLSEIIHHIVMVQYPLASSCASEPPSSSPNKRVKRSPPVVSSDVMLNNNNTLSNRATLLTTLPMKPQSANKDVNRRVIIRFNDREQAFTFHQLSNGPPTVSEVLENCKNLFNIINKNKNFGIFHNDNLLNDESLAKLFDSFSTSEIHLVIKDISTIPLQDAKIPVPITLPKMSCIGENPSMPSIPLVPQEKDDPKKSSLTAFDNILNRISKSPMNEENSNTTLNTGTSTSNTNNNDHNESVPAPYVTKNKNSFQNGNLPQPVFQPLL
Summary of the method: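 Detection of bound protein used fluorescent anti-GST, with scans normalised by masliner. The proteins were GST-tagged yeast transcription factors applied at about 100-200 nM to universal all-10-mer Agilent arrays made double-stranded by primer extension. Each ungapped eight-base word, pooled with its reverse complement, was scored with an E-score from the Universal PBM Analysis Suite.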

Sequence | PBM E-score
TCGGACCA | -0.0894
AACTATCG | -0.00583
GCGAGATA | 0.0156
ACGAGAGC | -0.0151
ACTAGCTA | 0.115
AGGGCTAA | -0.206
GCGTCGTA | 0.0112
CCTGCAGA | 0.127
AACCGCCC | 0.0139
CACAATGC | 0.132
GTTTGTAA | -0.116
CCCAGATC | -0.129
ACATTCTG | -0.0402
CAAGAGTC | 0.296
GCATAACC | -0.129
ATACCCGG | 0.0288
ATGGAAAC | 0.0483
CACTGGGG | -0.154
CAGACAAA | -0.0629
GACTGCCC | 0.00579
GATGGAGC | -0.00182
AAGGCTAA | -0.104
GAAAGCAC | 0.0106
ATGAATCG | 0.214
GCAGTGGA | 0.119

Sequence | PBM E-score
ACACTTAG | 0.00688
AGCGGGAC | -0.019
GATTACGA | 0.0511
AAAGCGTT | -0.214
CCCGTAGG | -0.157
CGAGTTAG | 0.064
GACAGGGA | 0.0588
CGCTCCCA | -0.111
CCTAACTA | -0.0949
CTACACAA | 0.139
GGCACCCA | 0.0262
ATAGCCGG | 0.00431
CCTCCATA | -0.18
ACGCAGGC | 0.0752
AAGTCCTG | 0.0661
TAAGGTGA | 0.0626
CGAAGTAG | -0.054
CGGTACCA | -0.0508
CTTTACGA | -0.236
ATATTAAA | 0.122
AAAAAGGA | -0.155
TGTTAAAA | -0.239
CCTGAAGC | -0.167
CTCAGGTA | 0.089
ACGGCTCC | -0.0297

Sequence | PBM E-score
ATTAATAC | 0.22
ACAACGAC | 0.254
GAGGCCTC | -0.162
CCTAGGCA | -0.148
ACGTTAGC | 0.0427
ATGTACTG | 0.0855
CAGTAAAC | 0.0383
CGGCTGAG | 0.217
CTCCCGAG | -0.00471
CGAGTGCA | -0.00982
AGCTTATC | 0.0364
GCGGTGGA | 0.0748
AGGCGGAT | -0.00314
CCTTACTC | 0.22
ATTGCGAC | 0.263
CACTTCTC | -0.0137
GGTGAGCA | 0.173
CATAGCAA | 0.00383
CTCGTAAG | 0.0866
GCATGTAC | -0.0959
ATAGCAGA | 0.0476
AAGCCGCA | -0.0375
AGCCAAGC | -0.0896
GCTCTCAA | -0.0323
GATTCCCC | 0.0301

Sequence | PBM E-score
AACTGTTG | 0.0056
GAAGTCGA | -0.0123
ATGGTTTG | 0.165
GAAAGGCC | -0.108
GGGAACCA | 0.176
CTGGTACA | 0.0626
GGGGACTA | -0.06
CAAAACAG | 0.108
CTAGATAC | 0.0175
AATCGGAG | 0.156
CAAGACAA | -0.087
AAAACTAT | -0.0485
AGTAAAGA | -0.0274
AATTTATC | 0.191
ACCTGGAC | 0.0512
GAACACCC | -0.0929
GCGACAGA | 0.0471
AGGTAAAA | -0.215
TTGTACAA | -0.266
GCAGCTGA | -0.0605
AATCTTTG | -0.219
CTACAAAA | 0.0722
TGCTCCCA | -0.106
GGGTGCCA | -0.00054
CTAGGTCC | -0.0836

Sequence | PBM E-score
AGCCACCG | 0.148
AAGACCAG | 0.0245
AACTACGC | 0.0352
GTCCACAC | 0.045
GATATATC | 0.0354
ACTGAGTA | 0.263
CTGGAATA | 0.157
AACAGGCA | -0.169
GTCACCCA | 0.311
CTTACACA | -0.051
CGTTTAGA | -0.209
GAGCGCCA | -0.161
GTAGCAAC | -0.101
CACGTTGG | 0.0111
ACGGCGCG | 0.107
ACTCCATA | 0.264
ATAGCCGC | -0.0372
CGTCGACC | -0.00578
CACCGCAG | -0.00862
ACAGCAAA | 0.014
CGTGGAAA | 0.139
AGAGCATA | -0.144
CGCAGCAC | 0.0469
AATATGGG | 0.124
CTTGCTCA | -0.075

Sequence | PBM E-score
ACATACAT | 0.252
GCCGGAAC | 0.049
ACATTTCA | -0.0562
ATAGTTCA | -0.136
AATCCCGA | 0.195
ATAATGCA | 0.0456
ACACCCGG | 0.159
AGTTGCAT | -0.0357
CGTCTGCC | -0.0382
ATTCTTGC | 0.0525
GCTCGGAC | -0.176
GCCGCAAA | 0.0311
TATTAGAA | 0.0146
ACCCTAAA | 0.0127
AGGAAAAA | -0.254
CCCATGGG | 0.285
GTATACTA | 0.124
GCAGGTAC | -0.0161
ACCATGGG | 0.108
ATGCTACC | 0.103
AAAGCGAT | -0.0512
CGCTACAG | -0.109
ATTCGATA | 0.102
CAAGACGC | 0.0697
GGAAAAAA | -0.304

Sequence | PBM E-score
CACCAAGG | 0.0118
GAGAAAAA | -0.253
TCCGGTAA | -0.173
CGTAATGC | -0.0238
AATACCTA | 0.0084
TCAAGAAA | -0.134
AGAAGCAT | -0.0793
AAGGTTCT | -0.0107
CTATGTCC | -0.024
CCTGGTTC | 0.0927
AAGAAAAC | -0.199
ATATCGAA | 0.152
ATACGGAC | -0.057
ACGATCTC | -0.167
CAGCGGGA | 0.151
AGAAAATC | -0.0625
ACGATTTC | -0.0302
AGATCGAT | 0.0197
ACACACCG | 0.223
AGTCTCTG | 0.121
ATCAAGTC | 0.0941
ACCCACAG | 0.157
CGCGAATA | 0.0128
CAGAAATC | -0.121
CAGACGTC | -0.128

Sequence | PBM E-score
CCGTGAAC | -0.0787
CGATTTTA | -0.0769
CAGTGAAC | 0.161
CAGGTGTA | 0.115
GCGCGGAA | 0.176
GCTGCGTA | 0.128
GTCCAATA | -0.0854
GAAGGGCC | -0.184
GAGACGCA | 0.0673
GCCTGCGC | -0.00523
ACACCGGA | 0.212
GACGTAAA | -0.236
GTAACCAA | 0.103
ACTTTCAA | -0.117
GATAAGAC | -0.185
GAGACATC | 0.194
GACTACTA | 0.328
CATGCGGG | 0.155
CAAGCGTC | -0.0792
AGGCGGGA | 0.0435
ATGGCTAC | 0.181
AAGAAAAT | -0.157
CAGGTACG | 0.0833
CGCAATCA | 0.254
CTATAAGC | -0.104

Sequence | PBM E-score
AACCCCAA | -0.0945
ATTCCAGG | 0.0397
ACCTGTAC | -0.0909
CCCGTCCA | -0.184
AGACCTCG | -0.0554
GATAAGTA | -0.123
CCATAGTC | 0.225
GAATGGTC | -0.0402
ACAATGGT | 0.0754
AAGCGATT | -0.0711
CGAACGAC | 0.0833
CCTGACAA | 0.0179
AGGCTGTC | -0.174
TACGGCAA | 0.0195
CCAGGGTC | 0.0218
GATCCGCA | -0.0169
CCCGCATC | -0.0755
ACTTCGTG | 0.196
CGAAAATC | 0.0303
